# In PubChem BioAssay AID485294 (National Center for Advancing Translational Sciences (NCATS), 2010):
# The campaign covered roughly 370,000 compounds. About 150 (0.041%) were called active. The shares of active, inactive and inconclusive entries below differ from those in the screen. The call rests on the fitted dose curve; in most records, active means well fitted inhibition curve with a large enough effect; inconclusive means small, poorly fitted or top-dose-only effect; inactive means flat fitted curve, though single readings scatter. No potency is given beside an inconclusive call; the fits are too rough.
# Target: Beta-lactamase (Escherichia coli (strain K12)) (UniProt P00811)
# Assay: qHTS Inhibitors of AmpC Beta-Lactamase (assay with detergent); further: nearly all actives have a fitted effect of over 25% in size;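 on activity change, negative = inhibition: 0% = no-compound wells and -100% = no-enzyme wells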
# Conditions: AmpC hydrolysis of nitrocefin, absorbance 480 nm, 0.01% Triton; activity change, negative = inhibition: at 114 µM (top of the series)
# Method in brief: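 AmpC (5.3 nM in the dispensed reagent) in 20 mM phosphate pH 7.0 with 0.01% (detergent screen) or 0.0001% Triton X-100 was preincubated with compounds for 15 min at room temperature. Nitrocefin was then added from an 800 uM solution, and hydrolysis was followed at 480 nm.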
# Potency means the concentration at half of the fitted maximal effect; tags describe the fitted curve by direction and shape.
# Sequence of UniProt P00811 (P00811 whole entry, looked up): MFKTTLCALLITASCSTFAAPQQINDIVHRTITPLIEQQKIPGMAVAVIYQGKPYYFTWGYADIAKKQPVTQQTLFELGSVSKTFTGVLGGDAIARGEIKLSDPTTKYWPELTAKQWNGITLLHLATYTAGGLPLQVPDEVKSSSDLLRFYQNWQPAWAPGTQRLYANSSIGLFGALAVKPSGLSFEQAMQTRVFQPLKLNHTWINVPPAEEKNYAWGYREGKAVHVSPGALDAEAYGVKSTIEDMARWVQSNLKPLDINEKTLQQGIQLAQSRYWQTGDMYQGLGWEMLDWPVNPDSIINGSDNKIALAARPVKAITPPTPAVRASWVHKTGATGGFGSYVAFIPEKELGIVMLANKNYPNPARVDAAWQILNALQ
Structure (SMILES),"activity change, negative = inhibition",Potency
CSc1ncc(/C=C2/C(=O)NC(=O)N(C)C2=O)cn1,inactive: -11.1%,–
O=C(NC1CCCC1)C1CC(=O)N(c2ccc(F)cc2)C1 (stereo unspecified),–,"inconclusive [inhibitor, partial curve]"
CCOc1ccc(NC(=O)N(Cc2c[nH]c3ccccc23)C2CCCCCC2)cc1,–,"inconclusive [inhibitor, single point]"
Cn1c(=S)c2[nH]c(SCCN3CCCC3)nc2n(C)c1=O,inactive: -6.35%,–
O=C(C/C=N/OCc1c(Cl)cccc1Cl)c1ccccc1,inactive: 3.05%,–
Cc1cc(OCC(=O)OCC(=O)NCCN2C(=O)CSC2=O)ccc1Cl,–,"inconclusive [inhibitor, full curve, poor fit]"
CCC(=O)c1c(NCCc2ccccc2)cc(C)oc1=O,–,"inconclusive [inhibitor, single point]"
Cc1cc(NCCCN2CCOCC2)n2ncc(-c3ccc(Cl)cc3)c2n1,–,"inconclusive [inhibitor, single point]"
COc1ccc(-c2nnc3n(CCc4ccccc4)c(=O)c4ccccc4n23)cc1OC,inactive: -2.36%,–
CC1=C(C(=O)OC2CCCCC2)C(c2ccccc2Br)NC(=O)N1 (stereo unspecified),–,"inconclusive [inhibitor, full curve, poor fit]"
COCCN(C(=O)CCCC(=O)Nc1ccccn1)C(C(=O)NC1CCCCC1)c1ccc(C)cc1 (stereo unspecified),–,"inconclusive [inhibitor, full curve]"
O=C(Nc1cccc(NC(=O)c2nccc3ccccc23)c1)c1ccco1,inactive: -9.51%,–
Cc1ccc(NC(=O)NNC(=O)c2cccs2)cc1,–,"inconclusive [inhibitor, full curve, poor fit]"
CCC(=O)NNC(=O)CSc1nnc(-c2ccccc2)c(-c2ccccc2)n1,inconclusive: -15.1% [inhibitor],–
OC1CN=C2CCCc3c2n(c2ccc(Cl)cc32)C1 (stereo unspecified),–,"inconclusive [inhibitor, partial curve]"
CC[C@@H](C)[C@@H](C(=O)Nc1ccc(C)cc1)N1Cc2ccccc2C1=O,inactive: -10.5%,–
Cc1ccc(NC(=O)c2cc3c(=O)n(Cc4ccco4)ccc3nc2C)cc1C,inactive: 3.77%,–
CCOC(=O)c1c(NC(=O)c2cc(CC(C)C)on2)sc(C(C)=O)c1C,–,"inconclusive [inhibitor, full curve, poor fit]"
CN(C(=O)COc1ccc(-c2nnco2)cc1)C1CCS(=O)(=O)C1 (stereo unspecified),–,"inconclusive [inhibitor, full curve]"
CCOC(=O)c1sc2nc(NC(=O)C3CC3)sc2c1C,inactive: -14%,–
CCOc1ccc(CCNC(=O)c2[nH]c(C)c(C(C)=O)c2CC)cc1OCC,–,"inconclusive [inhibitor, single point]"
Cc1ccc(C2c3[nH]c4ccccc4c3C[C@H]3C(=O)N(c4ccccc4C(=O)N4CCC[C@@H]4C(=O)O)C(=O)N23)cc1 (stereo partly specified),–,"inconclusive [inhibitor, full curve, poor fit]"

Structure (SMILES),"activity change, negative = inhibition",Potency
O=C1CC(N2CCc3ccccc32)C(=O)N1c1ccc(F)cc1 (stereo unspecified),–,"inconclusive [inhibitor, partial curve]"
CC1CCC(NC(=O)C2(C)CCC(=O)N2Cc2cccnc2)CC1 (stereo unspecified),–,"inconclusive [inhibitor, full curve]"
Nc1c2c(nn1-c1ccc(C(=O)O)cc1)CNC2,–,"inconclusive [inhibitor, single point]"
O=C(COc1ccccc1F)OCc1cc(=O)n2nc(C3CC3)sc2n1,inactive: 1.62%,–
O=C(c1ccc(Br)c([N+](=O)[O-])c1)N1CCN(Cc2ccccc2)CC1,–,"inconclusive [inhibitor, full curve, poor fit]"
COc1ccc(CCNC(=O)Cn2c(=O)c3cccn3c3ccc(F)cc32)c(OC)c1,inactive: 23.7%,–
CC(C)(C)NC(=O)Cn1nnc(-c2ccc(OCc3c(F)cccc3Cl)cc2)n1,inactive: -1.11%,–
CCOC(=O)N1CCC(NC(=O)c2ccc3snnc3c2)CC1,–,"inconclusive [inhibitor, partial curve, poor fit]"
[O-]/C(=C(\C(=S)Nc1cccc2ccccc12)[n+]1ccccc1)c1cccs1,inactive: 4.93%,–
CCCC(=O)N1CCCC(c2nc(-c3cccs3)no2)C1 (stereo unspecified),–,"inconclusive [inhibitor, full curve, poor fit]"
CC(=O)Oc1ccc(-c2csc(Nc3ccc(Cl)cn3)n2)cc1,inactive: 0.343%,–
Cc1cc2c(c(=O)o1)C1O[C@](c3ccsc3)(Cc3cc(C#N)ccc31)O2,–,"inconclusive [inhibitor, partial curve, poor fit]"
Fc1ccc(N/N=C2/CCSc3sccc32)c(F)c1,inactive: -10.6%,–
CSc1nc(NCC(C)C)nc(N2CCOCC2)n1,–,"inconclusive [inhibitor, single point]"
COc1cccc(C(C(=O)NC2CCCC2)N(C(=O)c2ccco2)c2cccc(C(C)=O)c2)c1OC (stereo unspecified),–,"inconclusive [inhibitor, full curve, poor fit]"
COc1ccc(OC)c(-c2csc(NC(=O)COC(=O)c3ccc(NC(=O)CC#N)cc3)n2)c1,–,"inconclusive [inhibitor, single point]"
Cc1cccc(NC(=O)Nc2ccc(Br)cc2)n1,–,inactive
CCOc1cccc(C(=O)Nc2ccc3[nH]ncc3c2)c1,–,"inconclusive [inhibitor, partial curve]"
Cc1ccc(S(=O)(=O)Nc2ccc(N3CCOCC3)cc2)cc1,–,"inconclusive [inhibitor, full curve, poor fit]"
COc1cccc(C(=O)NCC(c2cccnc2)N2CCN(c3ccccc3OC)CC2)c1 (stereo unspecified),–,"inconclusive [inhibitor, partial curve, poor fit]"
NC(=O)C1CCN(c2oc(-c3ccccc3F)nc2S(=O)(=O)c2ccc(Cl)cc2)CC1,–,"inconclusive [inhibitor, partial curve]"
N#Cc1ccccc1OCC(=O)N(C1CCCCC1)C1CCS(=O)(=O)C1 (stereo unspecified),–,"inconclusive [inhibitor, single point]"

Structure (SMILES),"activity change, negative = inhibition",Potency
O=CNC(Cc1ccccc1)C(=O)O (stereo unspecified),–,"inconclusive [inhibitor, full curve, poor fit]"
Cc1noc(C)c1S(=O)(=O)N1CCN(C(c2ccccc2)c2ccc(Cl)cc2)CC1 (stereo unspecified),–,"inconclusive [inhibitor, full curve, poor fit]"
Nc1nc(OCC(F)(F)F)cc(Oc2ccccc2F)n1,–,"inconclusive [inhibitor, full curve]"
COc1cc(-c2nnc(-c3ccc(S(=O)(=O)c4ccccc4)cc3)o2)cc(OC)c1OC,–,"inconclusive [inhibitor, partial curve, poor fit]"
O=C(Oc1ccccc1N1C(=O)C2CCCCC2C1=O)c1ccccc1 (stereo unspecified),–,"inconclusive [inhibitor, full curve, poor fit]"
O=C(CCCNS(=O)(=O)c1cccs1)N1CCN(c2cccc(Cl)c2)CC1,–,"inconclusive [inhibitor, full curve, poor fit]"
Cc1cc(C)cc(NC2=C(c3ccccc3)C(=O)c3ccccc32)c1,inactive: 24.4%,–
Cc1ccc(CC(=O)N2CCC(c3nc4c(nnn4Cc4ccccc4)c(=O)[nH]3)CC2)cc1,–,"inconclusive [inhibitor, full curve, poor fit]"
COc1cccc(CNC(=O)CSc2nnc(C)c3c(C)n(-c4ccccc4)nc23)c1OC,inactive: 25.4%,–
O=C(CCN1C(=O)/C(=C/c2ccc3c(c2)OCO3)SC1=S)Nc1ccc(C(=O)O)cc1,–,"inconclusive [inhibitor, partial curve]"
O=C(O)c1ccc2nc(-c3ccccc3)c(-c3ccccc3)nc2c1,inactive: -10.4%,–
Cc1nnc(NC(=O)c2ccc(S(=O)(=O)N3CC(C)CC(C)C3)cc2)o1 (stereo unspecified),–,"inconclusive [inhibitor, full curve]"
CCN(Cc1ccccc1)S(=O)(=O)c1ccc(C(=O)N(CCCN(C)C)c2nc3c(F)cccc3s2)cc1,–,"inconclusive [inhibitor, full curve, poor fit]"
CCOP(=O)(OCC)C(Nc1ccc(C)cc1)c1ccco1 (stereo unspecified),–,"inconclusive [inhibitor, single point]"
NS(=O)(=O)c1ccc(CCNC(=O)CCC(=O)c2cccs2)cc1,–,"inconclusive [inhibitor, full curve, poor fit]"
CCCC12CN3CCN(CC(C3)/C1=N\NC(=O)c1ccc(C(C)(C)C)cc1)C2,–,"inconclusive [inhibitor, full curve, poor fit]"
COc1ccccc1N1CCN(C(=O)CSc2nc3ccccc3nc2N2CCCCC2)CC1,–,"inconclusive [inhibitor, partial curve, poor fit]"
O=c1c2ccccc2cnn1Cc1n[nH]c(=S)n1-c1ccc(Cl)cc1,–,"inconclusive [inhibitor, partial curve, poor fit]"
CCN(CC)S(=O)(=O)c1cccc(C(=O)Nc2cc3oc4ccccc4c3cc2OC)c1,inactive: 0.222%,–
CCOC(=O)c1[nH]c2ccc(OC)cc2c1NC(=O)c1nonc1C,–,"inconclusive [inhibitor, full curve, poor fit]"
CCNc1nc(NC(C)C)nc(NS(=O)(=O)c2ccc(Cl)cc2)n1,–,"inconclusive [inhibitor, partial curve]"
N#CCCN1CCN(S(=O)(=O)c2ccc(S(=O)(=O)NC3CC3)cc2)CC1,–,"inconclusive [inhibitor, full curve, poor fit]"
